This is an account of results in the supplement of paper PMC4604168 (melanoma cell lines).

This is one part of the list. Repeats are few or missing, and single values can be far off.
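Further: cells treated in 1,536-well plates, then fixed and DAPI-stained, with nuclei counted from automated high-throughput microscope images.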

The subject of the assay is A375. The experiment in a line: cell count relative to DMSO control; melanoma cells; higher = more viable cells. To be noted: library dose: standard library concentration; 72 h.
`O=C(/C=C/c1cccnc1)NCCCCC1CCN(C(=O)c2ccccc2)CC1` + Cn1nnc2c(C(N)=O)ncn2c1=O [temozolomide] (first compound 0.05 µM, partner dose 10 µM) gave a cell count of 108%.

As for `O=C(/C=C/c1cccnc1)NCCCCC1CCN(C(=O)c2ccccc2)CC1` + CCCCCCCCc1ccc(CCC(N)(CO)CO)cc1 [fingolimod] (first compound 0.05 µM, partner dose 10 µM), the cell count is 32.5%.

Consider `CC1(C)CCC(c2ccc(Cl)cc2)=C(CN2CCN(c3ccc(C(=O)NS(=O)(=O)c4ccc(N[C@H](CCN5CCOCC5)CSc5ccccc5)c(S(=O)(=O)C(F)(F)F)c4)cc3)CC2)C1` + C[C@]1(c2nc3c(C(N)=O)cccc3[nH]2)CCCN1 [Veliparib] (first compound 2 µM, partner dose 7 µM), for which the cell count stood at 74.3%.

Take `Cc1ccc(Nc2nccc(N(C)c3ccc4c(C)n(C)nc4c3)n2)cc1S(N)(=O)=O` [Pazopanib] + C=CCNC1=C2C[C@@H](C)C[C@H](OC)[C@H](O)[C@@H](C)/C=C(\C)[C@H](OC(N)=O)[C@@H](OC)/C=C\C=C(/C)C(=O)NC(=CC1=O)C2=O [Tanespimycin] (first compound 2 µM, partner dose 0.01 µM): the cell count is 81.6%.

In turn, `Cc1ccc(Nc2nccc(N(C)c3ccc4c(C)n(C)nc4c3)n2)cc1S(N)(=O)=O` [Pazopanib] + OCCn1cc(-c2cnc3nnn(Cc4ccc5ncccc5c4)c3n2)cn1 [PF04217903] (first compound 2 µM, partner dose 5 µM) yielded a cell count of 84.4%.

In the case of `O=C(/C=C/c1cccnc1)NCCCCC1CCN(C(=O)c2ccccc2)CC1` + C[C@]1(c2nc3c(C(N)=O)cccc3[nH]2)CCCN1 [Veliparib] (first compound 0.05 µM, partner dose 7 µM), the cell count was 80.3%.

As to `O=C(/C=C/c1cccnc1)NCCCCC1CCN(C(=O)c2ccccc2)CC1` + CO[C@@H]1[C@H](N(C)C(=O)c2ccccc2)C[C@H]2O[C@]1(C)n1c3ccccc3c3c4c(c5c6ccccc6n2c5c31)C(=O)NC4 [Midostaurin] (first compound 0.05 µM, partner dose 0.4 µM), the cell count is 71.6%.

Regarding `O=C(/C=C/c1cccnc1)NCCCCC1CCN(C(=O)c2ccccc2)CC1` + CC1(C)CCC(c2ccc(Cl)cc2)=C(CN2CCN(c3ccc(C(=O)NS(=O)(=O)c4ccc(N[C@H](CCN5CCOCC5)CSc5ccccc5)c(S(=O)(=O)C(F)(F)F)c4)cc3)CC2)C1 [ABT263] (first compound 0.05 µM, partner dose 2 µM), the cell count was found to be 79.1%.

Consider `O=C(/C=C/c1cccnc1)NCCCCC1CCN(C(=O)c2ccccc2)CC1` + C[C@@H]1CCN(C(=O)CC#N)C[C@@H]1N(C)c1ncnc2[nH]ccc12 [CP690550] (first compound 0.05 µM, partner dose 5 µM), for which the cell count was 106%.

`O=C(/C=C/c1cccnc1)NCCCCC1CCN(C(=O)c2ccccc2)CC1` + Cc1cc(N2CCOCC2)cc2[nH]c(-c3c(NC[C@@H](O)c4cccc(Cl)c4)cc[nH]c3=O)nc12 [BMS536924] (first compound 0.05 µM, partner dose 1 µM) displayed a cell count of 112%.

Consider `CC1(C)CCC(c2ccc(Cl)cc2)=C(CN2CCN(c3ccc(C(=O)NS(=O)(=O)c4ccc(N[C@H](CCN5CCOCC5)CSc5ccccc5)c(S(=O)(=O)C(F)(F)F)c4)cc3)CC2)C1` + Cc1ccc(NC(=O)c2cccc(N(C)C)c2)cc1NC(=O)c1ccc(O)cc1 [ZM336372] (first compound 2 µM, partner dose 10 µM), for which the cell count is 76.6%.

`Cc1ccc(Nc2nccc(N(C)c3ccc4c(C)n(C)nc4c3)n2)cc1S(N)(=O)=O` [Pazopanib] + CC(=O)c1c(C)c2cnc(Nc3ccc(N4CCNCC4)cn3)nc2n(C2CCCC2)c1=O [palbociclib] (first compound 2 µM, partner dose 0.2 µM) returned a cell count of 74.7%.

The compound `Cc1ccc(Nc2nccc(N(C)c3ccc4c(C)n(C)nc4c3)n2)cc1S(N)(=O)=O` [Pazopanib] + NC(=O)c1ccc(N(C(N)=O)c2c(F)cccc2F)nc1-c1ccc(F)cc1F [VX702] (first compound 2 µM, partner dose 2 µM) returned a cell count of 90.1%.
